Experimental data taken from paper PMC4336329 (PLoS ONE, 2015).
About 2,200 (0.71%) of roughly 310,000 compounds showed an effect of 50% or more. Effects have a minus sign here. This is one part of the list.

Target: human ether-à-go-go-related gene (hERG) potassium channel (human, UniProt Q12809)
Assay: primary screen, population patch clamp on CHO cells stably expressing hERG

human ether-à-go-go-related gene (hERG) potassium channel, sequence (Q12809 whole entry, looked up): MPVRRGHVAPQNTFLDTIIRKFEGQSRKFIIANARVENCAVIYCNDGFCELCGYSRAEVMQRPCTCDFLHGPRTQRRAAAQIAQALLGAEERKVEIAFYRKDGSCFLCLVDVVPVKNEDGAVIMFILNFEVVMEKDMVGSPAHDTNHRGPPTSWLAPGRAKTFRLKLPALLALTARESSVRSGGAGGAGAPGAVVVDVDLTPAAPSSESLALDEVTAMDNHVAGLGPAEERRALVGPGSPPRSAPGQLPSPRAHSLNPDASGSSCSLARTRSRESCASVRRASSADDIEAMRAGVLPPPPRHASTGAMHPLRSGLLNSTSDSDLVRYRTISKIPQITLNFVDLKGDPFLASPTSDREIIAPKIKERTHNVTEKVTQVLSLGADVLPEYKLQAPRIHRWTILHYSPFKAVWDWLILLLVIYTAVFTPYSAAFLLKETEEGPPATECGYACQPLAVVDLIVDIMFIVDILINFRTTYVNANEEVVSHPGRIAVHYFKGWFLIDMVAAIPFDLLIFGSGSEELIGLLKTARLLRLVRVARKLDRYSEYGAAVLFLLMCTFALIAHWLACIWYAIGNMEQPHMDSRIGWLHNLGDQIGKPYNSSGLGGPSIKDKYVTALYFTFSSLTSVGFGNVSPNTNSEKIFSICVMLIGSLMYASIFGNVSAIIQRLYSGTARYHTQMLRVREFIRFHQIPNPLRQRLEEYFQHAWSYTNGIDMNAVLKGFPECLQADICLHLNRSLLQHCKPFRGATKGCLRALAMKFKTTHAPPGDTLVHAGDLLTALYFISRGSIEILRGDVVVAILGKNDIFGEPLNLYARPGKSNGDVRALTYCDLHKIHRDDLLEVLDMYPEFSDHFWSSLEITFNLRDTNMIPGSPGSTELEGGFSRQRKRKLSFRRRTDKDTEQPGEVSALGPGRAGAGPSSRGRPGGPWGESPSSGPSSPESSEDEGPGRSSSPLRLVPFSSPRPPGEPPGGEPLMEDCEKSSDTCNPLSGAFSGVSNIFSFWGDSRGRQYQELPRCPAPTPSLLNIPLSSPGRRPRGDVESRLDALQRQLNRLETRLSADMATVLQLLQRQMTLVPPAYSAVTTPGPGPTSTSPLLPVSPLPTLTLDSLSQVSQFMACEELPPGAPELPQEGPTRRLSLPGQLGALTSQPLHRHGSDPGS

Point of comparison: `Cc1cc(C)c(O)c(-c2cc(C(=O)NCCc3ccc(S(N)(=O)=O)cc3)[nH]n2)c1`, “hERG current change (%, negative = inhibition) at 1uM” value 17.1%. Against it:
- CCCCN(C(=O)Nc1ccc(OCC)cc1)C1CCN(C(C)=O)CC1 — lower, -9.33%
- Cc1ccsc1C1CC(=O)Nc2ccccc2S1 (stereo not shown) — lower, 12.5%
- Cc1ccccc1/C=C1\C(=O)Nc2ccc(F)cc21 — lower, 10.4%
- COc1cccc(NC(=O)COC(=O)Cc2ccccc2[N+](=O)[O-])c1 — lower, 2.98%
- COc1ccc2c(=O)c3c(=O)n(Cc4ccco4)c(-c4ccco4)nc3oc2c1 — lower, -12.8%
- CCN1CCN(C(=O)/C=C/c2ccc3c(c2)OCO3)CC1 — lower, 11.6%
- CCN(CC(=O)Nc1c(F)cccc1F)C(=O)CSCC(=O)Nc1cc(C)on1 — lower, 9.93%
- NCC(=O)NNC(=O)OCC1c2ccccc2-c2ccccc21 — lower, 6.61%
- Oc1ccc2ccccc2c1/C=N/c1nc2c(s1)CCCC2 — lower, 8.4%
- Cc1cc(C)n(C(=O)c2ccc(NC(=O)CC(C)C)cc2)n1 — lower, 2.45%
- COC(=O)C(C)n1nnc2sc(-c3ccccc3)cc2c1=O (stereo not shown) — lower, -1.39%
- COc1ccccc1C(=O)Nc1ccccc1N1CCN(C(=O)c2ccc(Cl)cc2)CC1 — lower, -85.2%
- Cc1ccc(S(=O)(=O)c2nc(NCCCn3ccnc3)sc2Cl)cc1 — lower, -19.3%
- COc1ccc(CCNC(=O)CN(c2ccccc2)S(C)(=O)=O)cc1 — higher, 20.3%
- O=c1c2c3c(sc2ncn1/N=C/c1ccc([N+](=O)[O-])o1)CCCC3 — lower, 15.1%
- CNC(=O)c1ccc(Nc2nnc(-c3ccc(C)c(S(=O)(=O)NCC4CCCO4)c3)c3ccccc23)cc1 (stereo not shown) — lower, 9.16%
- COc1ccc(-c2csc(Cc3nnc4n3CCCCC4)n2)cc1 — lower, -19.9%
- Cc1sc2nc(CSC(C)C(=O)N(C)CC(=O)Nc3ccccc3C(F)(F)F)[nH]c(=O)c2c1C (stereo not shown) — lower, 16.3%
- O=C(Nc1cc(S(=O)(=O)N2CCOCC2)ccc1N1CCCCC1)c1cc(-c2ccccn2)nc2ccccc12 — lower, 10.1%
- COc1cc(-c2nnc(SCc3cc(=O)oc4cc(C)ccc34)o2)cc(OC)c1OC — lower, 5.4%
- O=c1[nH]c(=O)c2nc(-c3ccc(Cl)cc3)cnc2[nH]1 — lower, 9.06%
- CN(C)c1ccc(P(=O)(OCc2ccccc2)C(O)c2ccc(Cl)cc2)cc1 (stereo not shown) — lower, 5.5%
- O=[N+]([O-])c1ccc(/C=C2\CCC(C3=CCCC3)=C2N2CCOCC2)cc1 — lower, 2.49%
- COC(=O)[C@@H](C)NC(=O)c1ccc2oc(CCc3ccccc3)nc2c1 — lower, 4.24%
- Cc1ccccc1NC(=O)NC1(C(=O)NCC2CCCO2)CCCCC1 (stereo not shown) — lower, 13.7%
- COc1ccc(-n2cnnc2SCC(=O)c2ccc(S(=O)(=O)N3CCOCC3)cc2)cc1 — lower, 10.7%
- CCCCNc1ccc(C(CC(N)=O)NC(=O)Cc2cccc3ccccc23)cc1[N+](=O)[O-] (stereo not shown) — lower, 1.16%
- CC(C)(O)C#Cc1ccc(CN2CCN(CCc3ccccc3)C(CCO)C2)s1 (stereo not shown) — lower, -1.09%
- Cc1nnc(SCC(=O)Nc2cccc(Cl)c2)n1CC1CCCO1 (stereo not shown) — higher, 17.8%
- CCCC(=O)NCCc1cc2ccc(OC)cc2[nH]c1=O — lower, 11%
- Cc1cc(NC(=O)COC(=O)c2cc([N+](=O)[O-])ccc2N2CCOCC2)ccc1Br — lower, 10.3%
- COc1cc(OC)cc(C(=O)N2CCCC(Nc3ccc(F)cc3)C2)c1 (stereo not shown) — lower, 9.19%
- COc1cc(C(=O)NCCC(C)C)c([N+](=O)[O-])cc1OC — lower, 2.08%
- CCOC(=O)c1ccc(N2CCN(c3ccc(F)cc3)CC2)c(NC(=O)Nc2cccc(OC)c2)c1 — lower, 11.3%
- O=C(Nc1cccc(F)c1)C1C2C=CC3(CN(CCCN4CCOCC4)C(=O)C13)O2 (stereo not shown) — lower, 0.618%
- Cc1ccc(-c2n[nH]c(=O)c3ccccc23)c(C)c1 — higher, 19.5%
- Cc1cccc(C(=O)NNC(=O)c2ccc(Cl)cc2)c1O — lower, 4.67%
- O=[N+]([O-])c1ccc(Oc2ccc(S(=O)(=O)Nc3ccccc3)cc2)cc1 — lower, 10.6%
- CSc1cccc(NC(=S)N2CCC(N(C)C3CCCC3)CC2)c1 — lower, -1.06%
- O=C1CCN(CCCc2ccccc2)CCN1[C@H](CO)c1ccccc1 — lower, 1.59%
- CCCCn1c(N)c(N(CC(C)C)C(=O)c2ccc(Br)s2)c(=O)[nH]c1=O — lower, -14.1%
- Cc1cccc2c(N=O)c(O)n(CCc3ccccc3)c12 — lower, 14.9%
- CCCCc1nc2cc(C(=O)NCc3nccn3CC)ccc2o1 — lower, 11.7%
- Cc1cc(NC(=O)C(C)Oc2ccc(C(C)(C)C)cc2)no1 (stereo not shown) — lower, 2.41%
- COc1cc(C(=O)NC(=S)Nc2ccc([N+](=O)[O-])cc2C)cc(OC)c1OC — lower, 10.2%
- CCOc1ccc(CCNC(=O)Cc2ccc(S(=O)(=O)N3CCOCC3)s2)cc1OCC — lower, -14.7%
- CCC(=O)Nc1c(-c2ccc3ccccc3c2)nc2ccccn12 — lower, 8.26%
- COc1ccc(C2=Nn3c([n+](C)c4ccccc43)SC2)cc1.[Br-] — lower, -13.2%
- COc1cccc(C(C)NC(=S)NCc2ccc(F)cc2)c1 (stereo not shown) — lower, 8.65%
- CNC(=O)CSc1nnc(-c2cccnc2)n1CCc1ccccc1 — higher, 17.6%
- Cc1cc(C)c(S(=O)(=O)NCC(=O)O)cc1C — lower, 12.5%
- COC(=O)C1=C(c2ccc(C(C)=O)cc2)C[C@@H]2CC[C@H]1N2C(=O)NC1CC1 — lower, 12.2%
- COc1ccc(NC(=O)CN(C)C(=O)CCCc2c[nH]c3ccccc23)cc1 — lower, 16.5%
- Cc1ccc(C(=O)Nc2ccc(C(=O)O)cc2)cc1S(=O)(=O)NCc1ccccc1 — lower, 4.39%
- Cn1c(=O)c2c(nc(CN3CCN(Cc4ccccc4)CC3)n2Cc2cccc(Cl)c2)n(C)c1=O — lower, -3.67%
- COc1ccc(N(CC(=O)NCc2cccnc2)S(=O)(=O)c2ccc(C)c([N+](=O)[O-])c2)cc1 — lower, 1.15%
- CC(C)CC1Nc2ncnc(N3CCCCC3)c2N(Cc2ccccc2)C1=O.O=C(O)C(F)(F)F (stereo not shown) — lower, -3.79%
- CCOC(=O)CCc1c(C)n(CC)c2cc(-c3ccccc3OC)nn2c1=O — lower, 7.08%
- COc1ccc(OC)c(NC(=O)C2CC2c2ccccc2)c1 (stereo not shown) — lower, 12.2%
- CCOC(=O)C1(CC2CC2)CCN(Cc2cn[nH]c2-c2ccccc2)CC1 — lower, -65.5%
- CCCn1c(N)c(N(CCOC)C(=O)c2cc3ccccc3cc2OC)c(=O)[nH]c1=O — lower, 13.1%
- N#C/C(=N\Nc1ccc(Cl)cc1)C(=O)c1ccsc1 — higher, 20.7%
- COc1ccc(/C(O)=C2/C(=O)C(=O)N(c3ccccn3)C2c2ccc(OC)c(OC)c2)cc1 (stereo not shown) — lower, 5.35%
- COc1ccc(NC(=O)CSCC(=O)Nc2ccc(S(=O)(=O)N3CCOCC3)cc2)cc1 — lower, 4.07%
- Cc1ccc2c(c1)N(C(=O)CCC(=O)NCc1cccnc1)CC(C)O2 (stereo not shown) — lower, -11.4%
- COC(=O)C1=C(C)N(CCc2ccccc2)C(=O)C1 — lower, 9.77%
- CC(C)Cn1c(N)c(C(=O)COC(=O)c2ccc3ccccc3n2)c(=O)n(C)c1=O — lower, -20.5%
- COc1ccc(Oc2c(C)oc3cc(OC(=O)N4CCOCC4)ccc3c2=O)cc1 — lower, 10%
- Cc1cc(C)n2nc(SCC(=O)N(CC(C)C)c3c(N)n(CC(C)C)c(=O)[nH]c3=O)nc2n1 — lower, 9.3%
- Fc1ccccc1NC(=S)Nc1cccc2cnccc12 — higher, 23.6%
- Cn1ncc(Br)c1C(=O)N1CCN(C(=O)c2ccco2)CC1 — lower, 2.31%
- CCc1cc2c(cc3c(=O)n(CC(=O)N4CCN(C)CC4)ncn32)s1 — lower, 1.59%
- COc1ccccc1C(=O)N1CCN(CCc2ccccc2)CC1 — lower, -31.5%
- COc1ccc(-c2[nH]c(-c3cccc(OC)c3)nc2SCC(=O)NC2CCCC2)cc1 — lower, 1.27%
- CC(C)=CC(=O)N1CC[C@@H](N2CCN(c3ccccc3F)CC2)[C@H](O)C1 — lower, 9.86%
- Clc1ccccc1-c1nnc2sc(-c3ccncc3)nn12 — lower, 2.73%
- COc1ccc(Cl)cc1N(CC(=O)Nc1ccc2c(c1)OCO2)S(C)(=O)=O — lower, 9.67%
- O=C(Cc1cn2ccsc2n1)NCCc1ccc(F)cc1 — lower, 9.08%
- Cc1cccc(NC(=S)Nc2ccc(Oc3ccccc3)cc2)n1 — lower, 9.12%
- CCCCCOc1ccc(C(=O)Nc2ccc(N3CCOCC3)cc2N2CCOCC2)cc1 — lower, 10.1%
- O=C1CCC(/C=C/c2ccccc2)=NN1Cc1ccccc1Cl — lower, 11.3%
- CCOc1ccc(NC(=O)CN2CCN(CC(=O)Nc3ccc(F)c(F)c3)CC2)cc1 — lower, -87.9%
- COc1cccc(-n2c(SCC(N)=O)nc3ccccc3c2=O)c1 — lower, 0.43%
- COc1ccc(C(=O)Nc2ccc(C(=O)N3CCCCC3C)cc2)c(OC)c1OC (stereo not shown) — lower, -7.93%
